# The list shows a part of the results.
# Key:
# Assay in all cases: glycan array binding signal (z-score within array); higher = stronger binding
# Details in all cases: glycan notation: IUPAC condensed, linker removed
# [1] = biological target: Gal(b1-3)GlcNAc(b1-3)Gal(b1-4)GlcNAc(b1-2)[Gal(b1-3)GlcNAc(b1-3)Gal(b1-4)GlcNAc(b1-6)]Man(a1-6)[Gal(b1-3)GlcNAc(b1-3)Gal(b1-4)GlcNAc(b1-2)Man(a1-3)]Man(b1-4)GlcNAc(b1-4)[Fuc(a1-6)]GlcNAc
# Summary of the method: (§1)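 The binding signal is a Z-score computed within each array. Data were drawn from 3228 arrays in the Consortium for Functional Glycomics database, restricted to those with a known protein sequence. Scores were averaged over arrays of the same protein sequence at different concentrations or buffers, and over linkers, and negative values can be taken as non-binding.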
# [2] = biological target: Gal(b1-3)GlcNAc(b1-3)Gal(b1-4)GlcNAc(b1-3)Gal(b1-4)GlcNAc(b1-2)[Gal(b1-3)GlcNAc(b1-3)Gal(b1-4)GlcNAc(b1-3)Gal(b1-4)GlcNAc(b1-6)]Man(a1-6)[Gal(b1-3)GlcNAc(b1-3)Gal(b1-4)GlcNAc(b1-3)Gal(b1-4)GlcNAc(b1-2)Man(a1-3)]Man(b1-4)GlcNAc(b1-4)[Fuc(a1-6)]GlcNAc
# Summary of the method: as §1
# [3] = biological target: Gal(b1-3)GlcNAc(b1-3)Gal(b1-4)GlcNAc(b1-6)[Gal(b1-3)GlcNAc(b1-3)]Gal(b1-4)Glc
# Summary of the method: as §1
# [4] = biological target: Gal(b1-3)GlcNAc(b1-3)Gal(b1-4)[Fuc(a1-3)]GlcNAc
# Summary of the method: as §1
# [5] = biological target: Gal(b1-3)GlcNAc(b1-3)Gal(b1-4)[Fuc(a1-3)]GlcNAc(b1-6)[Gal(b1-3)GlcNAc(b1-3)]Gal(b1-4)Glc
# Summary of the method: as §1
# [6] = biological target: Gal(b1-3)GlcNAc(b1-3)GalNAc
# Summary of the method: as §1
# [7] = biological target: Gal(b1-3)GlcNAc(b1-6)Gal(b1-4)GlcNAc
# Summary of the method: as §1
# [8] = biological target: Gal(b1-3)GlcNAc(b1-6)GalNAc
# Summary of the method: as §1
# [9] = biological target: Gal(b1-3)GlcNAc(b1-6)[Gal(b1-3)]GalNAc
# Summary of the method: as §1
# Gal(b1-3)GlcNAc6S = biological target: Gal(b1-3)GlcNAc6S
# Summary of the method: as §1
# [10] = biological target: Gal(b1-3)[Fuc(a1-4)]GlcNAc
# Summary of the method: as §1
# [11] = biological target: Gal(b1-3)[Fuc(a1-4)]GlcNAc(b1-2)Man
# Summary of the method: as §1
# [12] = biological target: Gal(b1-3)[Fuc(a1-4)]GlcNAc(b1-2)Man(a1-3)[Gal(b1-3)[Fuc(a1-4)]GlcNAc(b1-2)Man(a1-6)]Man(b1-4)GlcNAc(b1-4)[Fuc(a1-6)]GlcNAc
# Summary of the method: as §1
# [13] = biological target: Gal(b1-3)[Fuc(a1-4)]GlcNAc(b1-3)Gal(b1-3)[Fuc(a1-4)]GlcNAc
# Summary of the method: as §1
# [14] = biological target: Gal(b1-3)[Fuc(a1-4)]GlcNAc(b1-3)Gal(b1-4)[Fuc(a1-3)]GlcNAc
# Summary of the method: as §1
# [15] = biological target: Gal(b1-3)[Fuc(a1-4)]GlcNAc(b1-6)GalNAc
# Summary of the method: as §1
# [16] = biological target: Gal(b1-3)[GlcNAc(b1-6)]GalNAc
# Summary of the method: as §1
# [17] = biological target: Gal(b1-3)[Neu5Ac(a2-6)]GalNAc
# Summary of the method: as §1
# [18] = biological target: Gal(b1-3)[Neu5Ac(a2-6)]GlcNAc(b1-4)Gal(b1-4)Glc
# Summary of the method: as §1
# [19] = biological target: Gal(b1-3)[Neu5Ac(b2-6)]GalNAc
# Summary of the method: as §1
# Gal(b1-4)Gal = biological target: Gal(b1-4)Gal
# Summary of the method: as §1
# [20] = biological target: Gal(b1-4)GalNAc(a1-3)[Fuc(a1-2)]Gal(b1-4)GlcNAc
# Summary of the method: as §1
# [21] = biological target: Gal(b1-4)GalNAc(b1-3)[Fuc(a1-2)]Gal(b1-4)GlcNAc
# Summary of the method: as §1
# Gal(b1-4)Glc = biological target: Gal(b1-4)Glc
# Summary of the method: as §1
# Gal(b1-4)Glc6S = biological target: Gal(b1-4)Glc6S
# Summary of the method: as §1
# Gal(b1-4)GlcNAc = biological target: Gal(b1-4)GlcNAc
# Summary of the method: as §1
# [22] = biological target: Gal(b1-4)GlcNAc(a1-6)Gal(b1-4)GlcNAc
# Summary of the method: as §1
# Gal(b1-4)GlcNAc(b1-2)Man = biological target: Gal(b1-4)GlcNAc(b1-2)Man
# Summary of the method: as §1
# [23] = biological target: Gal(b1-4)GlcNAc(b1-2)Man(a1-3)Man(b1-4)GlcNAc(b1-4)GlcNAc
# Summary of the method: as §1
# [24] = biological target: Gal(b1-4)GlcNAc(b1-2)Man(a1-3)[Gal(b1-4)GlcNAc(b1-2)Man(a1-6)]Man(b1-4)GlcNAc(b1-4)GlcNAc
# Summary of the method: as §1
# [25] = biological target: Gal(b1-4)GlcNAc(b1-2)Man(a1-3)[Gal(b1-4)GlcNAc(b1-2)Man(a1-6)]Man(b1-4)GlcNAc(b1-4)[Fuc(a1-6)]GlcNAc
# Summary of the method: as §1
# [26] = biological target: Gal(b1-4)GlcNAc(b1-2)Man(a1-3)[Gal(b1-4)GlcNAc(b1-2)Man(a1-6)][Gal(b1-4)GlcNAc(b1-4)]Man(b1-4)GlcNAc(b1-4)[Fuc(a1-6)]GlcNAc
# Summary of the method: as §1
# [27] = biological target: Gal(b1-4)GlcNAc(b1-2)Man(a1-3)[Gal(b1-4)GlcNAc(b1-2)Man(a1-6)][GlcNAc(b1-4)]Man(b1-4)GlcNAc(b1-4)[Fuc(a1-6)]GlcNAc
# Summary of the method: as §1
# [28] = biological target: Gal(b1-4)GlcNAc(b1-2)Man(a1-3)[GlcNAc(b1-2)Man(a1-6)]Man(b1-4)GlcNAc(b1-4)GlcNAc
# Summary of the method: as §1
# [29] = biological target: Gal(b1-4)GlcNAc(b1-2)Man(a1-3)[GlcNAc(b1-4)][Gal(b1-4)GlcNAc(b1-2)Man(a1-6)]Man(b1-4)GlcNAc(b1-4)GlcNAc
# Summary of the method: as §1
# [30] = biological target: Gal(b1-4)GlcNAc(b1-2)Man(a1-3)[Man(a1-6)]Man(b1-4)GlcNAc(b1-4)GlcNAc
# Summary of the method: as §1
# [31] = biological target: Gal(b1-4)GlcNAc(b1-2)Man(a1-6)Man(b1-4)GlcNAc(b1-4)GlcNAc
# Summary of the method: as §1
# [32] = biological target: Gal(b1-4)GlcNAc(b1-2)Man(a1-6)[GlcNAc(b1-2)Man(a1-3)]Man(b1-4)GlcNAc(b1-4)GlcNAc
# Summary of the method: as §1
binder,measurement,setting,value
PNGase F (Flavobacterium meningosepticum) (protein) GIPAPADNTVNIKTFDKVKNAFGDGLSQSAEGTFTFPADVTAVKTIKMFIKNECPNKTCDEWDRYANVYVKNKTTGEWYEIGRFITPYWVGTEKLPRGLEIDVTDFKSLLSGNTELKIYTETWLAKGREYSVDFDIVYGTPDYKYSAVVPVVQYNKSSIDGVPYGKAHTLALKKNIQLPTNTEKAYLRTTISGWGHAKPYDAGSRGCAEWCFRTHTIAINNSNTFQHQLGALGCSANPINNQSPGNWTPDRAGWCPGMAVPTRIDVLNNSLIGSTFSYEYKFQNWTNNGTNGDAFYAISSFVIAKSNTPISAPVVTNLDPHHHHHH,glycan array binding signal (z-score),[1],0.675
same,glycan array binding signal (z-score),[2],-0.113
same,glycan array binding signal (z-score),[3],-0.348
same,glycan array binding signal (z-score),[4],-0.213
same,glycan array binding signal (z-score),[5],-0.21
same,glycan array binding signal (z-score),[6],-0.268
same,glycan array binding signal (z-score),[7],-0.334
same,glycan array binding signal (z-score),[8],-0.626
same,glycan array binding signal (z-score),[9],-0.098
same,glycan array binding signal (z-score),Gal(b1-3)GlcNAc6S,-0.196
same,glycan array binding signal (z-score),[10],0.07
same,glycan array binding signal (z-score),[11],-0.017
same,glycan array binding signal (z-score),[12],0.675
same,glycan array binding signal (z-score),[13],-0.309
same,glycan array binding signal (z-score),[14],-0.321
same,glycan array binding signal (z-score),[15],-0.207
same,glycan array binding signal (z-score),[16],-0.166
same,glycan array binding signal (z-score),[17],-0.245
same,glycan array binding signal (z-score),[18],-0.309
same,glycan array binding signal (z-score),[19],-0.337
same,glycan array binding signal (z-score),Gal(b1-4)Gal,0.114
same,glycan array binding signal (z-score),[20],-0.371
same,glycan array binding signal (z-score),[21],-0.37
same,glycan array binding signal (z-score),Gal(b1-4)Glc,0.897
same,glycan array binding signal (z-score),Gal(b1-4)Glc6S,0.105
same,glycan array binding signal (z-score),Gal(b1-4)GlcNAc,-0.008
same,glycan array binding signal (z-score),[22],-0.18
same,glycan array binding signal (z-score),Gal(b1-4)GlcNAc(b1-2)Man,0.088
same,glycan array binding signal (z-score),[23],-0.136
same,glycan array binding signal (z-score),[24],-0.323
same,glycan array binding signal (z-score),[25],-0.194
same,glycan array binding signal (z-score),[26],-0.348
same,glycan array binding signal (z-score),[27],-0.326
same,glycan array binding signal (z-score),[28],-0.321
same,glycan array binding signal (z-score),[29],-0.247
same,glycan array binding signal (z-score),[30],1.11
same,glycan array binding signal (z-score),[31],-0.202
same,glycan array binding signal (z-score),[32],-0.208

# Source: the supplement of paper PMC8728848
